# ± gives the standard deviation of the averaged measurements. The list shows a part of the results.
# System: PfAP2-LT AP2 domain (GST-tagged)
# Assay: gcPBM binding intensity (ln(normalized median fluorescence intensity)); higher = stronger DNA binding
# Method in brief: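 Binding of GST-tagged P. falciparum DNA-binding domains, expressed in E. coli and used at about 25 μg on average, was carried out for 1 h in 1× PBS containing 1% milk, 0.2 mg/ml BSA, 0.5% salmon testes DNA and 0.03% Triton X-100. The target was an Agilent 4 × 180k array of primer-extended double-stranded 36-bp intergenic genomic probes plus negative controls, read with Alexa488 anti-GST antibody at 488 nm. Binding intensity is the highest Masliner-normalised natural-log median intensity across replicate spots of either probe orientation.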
row,Sequence,gcPBM binding intensity (ln)
1,AGAAGTTTATCTTTTAGTACGCATAAAAAAAAAAAA [XGTACX_site2359],8.43 ± 0.46
2,GGGAGGATATTTCACAGTACCCAGGAAATCTGCGGA [XGTACX_site2555],8.56 ± 0.47
3,TAAATATATATATGGTGTACCATTTTGGGTTAATAT [XGTACX_site2706],8.69 ± 0.44
4,TTAATATTTTGATGTGTACACATTAAAATAGTTTTA [CACACA_site5712],8.46 ± 0.48
5,TATATTATTTTTTATTGTACTTAAAAATATTATTTG [XGTACX_site1443],8.61 ± 0.34
6,TATAGTAATATTTGAAGTACAAAATTAAAATAAATA [XGTACX_site7634],8.88 ± 0.49
7,TTAAATAGCTGTAATTGTACAAATAAATACATAAAT [XGTACX_site3097],8.82 ± 0.38
8,TTATATAAGGTCTATATATAAATATTAATGATAAGG [TGCATGCA_negctrl_site354],8.52 ± 0.46
9,TTTTTTTTGTTATGAACATGCAAATTAAAATATAAT [TGCATGCA_site954],8.21 ± 0.4
10,CAACAATTTCGTCATACACACATTCAGAATATATAT [CACACA_site2370],8.98 ± 0.34
11,TACTTTTCTTAAAGATGTACGTTTTAAAAATAAAAT [XGTACX_site14],8.21 ± 0.4
12,TAAATACATAAAAATTGTACACATTGTTTTCTCTTT [XGTACX_site6435],8.72 ± 0.55
13,TCCTTATTTTGCAGGAGTACCATTTTTTAAAAATAC [XGTACX_site5968],8.49 ± 0.4
14,AATAACAATTATAAAAGTACAGATTTTTATTTCTAA [XGTACX_site5746],8.47 ± 0.43
15,ACAATTACTTATTTTAATTTTTTTAATCTATTGATT [CACACA_negctrl_site967],8.61 ± 0.45
16,ATATTTTTTTTTCTTTCGCACACGTGAAAGAATTTC [CACACA_site8636],8.99 ± 0.57
17,TTTTATGCTCAATTATTAAGAAATACTTTTTCTTCC [XGTACX_negctrl_site208],8.45 ± 0.68
18,AAAATAAAAATTAACTGTACATACATTATTCAAATT [XGTACX_site6106],8.59 ± 0.45
19,TACAAACAAACACATAGCAATATATGTTATCAAAAA [XGTACX_negctrl_site1],8.95 ± 0.47
20,AAGGAAATAATTAAATGTACAAAAAAAAAAAAAATT [XGTACX_site562],8.79 ± 0.59
21,AAGATTAAACATTGCACACAGAAATATATTTTCTAT [CACACA_site2374],9.02 ± 0.33
22,ATTAATAAAAGATAAAGTACAAATCGGAAAATGAAT [XGTACX_site7846],9.03 ± 0.44

row,Sequence,gcPBM binding intensity (ln)
1,TTTCAATGTGACACGTGTCCGTAAAATTACATAATT [XGTACX_site7073],8.8 ± 0.28
2,TTGTTCATCTTTTTTTTTTTTTTTTTTTTTTAAATC [CACACA_negctrl_site191],8.22 ± 0.47
3,ATTTATAATTTTTGAGCACACACAAGCATATATATA [CACACA_site8531],9.1 ± 0.36
4,TGTTATTATTAAGACACACACACAAAAAAAAAAAAA [CACACA_site1481],9.4 ± 0.42
5,TGAACTCATAGGAAAACACACATATGTGCAATATAT [CACACA_site6231],9.12 ± 0.36
6,ACAATGATAGTGTAAAGTACATATATATAAAAAAAT [XGTACX_site5928],9.26 ± 0.59
7,TTTATAATATGTTATACATGCAGGTACCTTTTTGTA [TGCATGCA_site746],8.9 ± 0.46
8,GAGAAATTTATACATACACACATATAAATATTATAG [CACACA_site7819],8.98 ± 0.42
9,CTTTGCATTACGAACATACACACAGAATAACTGAAA [CACACA_site3024],8.94 ± 0.34
10,ATATATTTTGGGGACTTTTTAAAAAAGAAGTATTAA [TGCATGCA_negctrl_site337],8.32 ± 0.49
11,TTTTTGTTAATAAGTATGCACTATCTCATTTTTGTA,8.79 ± 0.49
12,TAGAAAAAAATAGATGCATGCAATGAATGAATAATA [TGCATGCA_site14],9.36 ± 0.55
13,TTTCTATTACGAACGTGTACATACATTATTCTTAAA [XGTACX_site5816],8.68 ± 0.47
14,GAGCATTACACATATACACACATATAAATAAACATA [CACACA_site7315],9.32 ± 0.42
15,CTATACTATGAAAAGTGTACGAATAGCTAGCTATTT [XGTACX_site5927],8.88 ± 0.4
16,TAGTAGTATTCATCCAGTACATATAAATGTATAATA [XGTACX_site7552],8.86 ± 0.59
17,ATCTATATTATTTCTACACACATATCTATAATATGT [CACACA_site7561],9.46 ± 0.45
18,ATATCAAATAGACAAACACACAAAGGAAGAGTGAAA [CACACA_site3921],9.21 ± 0.49
19,TTCTTTTTTTTTTTTTTTTTTTTATAGTACAAAAAA [TGCATGCA_negctrl_site450],8.2 ± 0.56
20,TTTTTTTTTTTGTGTGCATGTGCTAGGAAAGGTAGG [TGCATGCA_site330],8.77 ± 0.47
21,AATAATATATAAGAAAGTACAAAAAAATAAAATAAA [XGTACX_site3302],8.82 ± 0.58
22,TTTTAATGAAATATCAAAAAAATTTATGATTTCAAA [GTGCAC_negctrl_site662],7.87 ± 0.47

# — the supplement of paper PMC11417369
